This note sets out measurements from patent US20250002455A1, “NEW N-PHENYLPYRROLAMIDE INHIBITORS OF DNA GYRASE AND TOPOISOMERASE IV WITH ANTIBACTERIAL ACTIVITY” (priority 2020, published 2025).

The test system of the assay is M. tuberculosis H37Rv. In words: microbe, parasite or virus in culture. The settings on record: Mycobacterium tuberculosis, 168 h, read-out: Viability of Mycobacterium tuberculosis H37Rv (%).

A word on the viability: it is a read-out of living cells in per cent, often relative to untreated cells.

As for `Cc1[nH]c(C(=O)Nc2ccc(-c3n[nH]c(=O)o3)cc2OCc2ccncc2)c(Cl)c1Cl` [Example 30, 3,4-Dichloro-5-methyl-N-(4-(5-oxo-4,5-dihydro-1,3,4-oxadiazol-2-yl)-2-(pyridin-4-ylmethoxy)phenyl)-1H-pyrrole-2-carboxamide], the viability at 1.25 µM came to 102%, the viability at 2.5 µM is 96.4%, the viability at 5 µM was 93.2% and the viability at 10 µM stood at 93.5%. Moreover, the viability at 20 µM was 107%.

As to `Cc1[nH]c(C(=O)Nc2ccc(-c3noc(=O)[nH]3)cc2N2CCNCC2)c(Cl)c1Cl` [Example 5, 4-(2-(3,4-Dichloro-5-methyl-1H-pyrrole-2-carboxamido)-5-(5-oxo-4,5-dihydro-1,2,4-oxadiazol-3-yl)phenyl)piperazin-1-ium chloride], the viability at 1.25 µM turned out to be 22%, the viability at 2.5 µM came out at 2.3% and the viability at 5 µM turned out to be 1.3%.

As to `Cc1[nH]c(C(=O)Nc2ccc(-c3n[nH]c(=O)o3)cc2N2CCOCC2)c(Cl)c1Cl` [Example 42, 3,4-Dichloro-5-methyl-N-(2-morpholino-4-(5-oxo-4,5-dihydro-1,3,4-oxadiazol-2-yl)phenyl)-1H-pyrrole-2-carboxamide], the viability at 1.25 µM is 122%, the viability at 2.5 µM is 90.8% and the viability at 5 µM is 11%.

As to `Cc1[nH]c(C(=O)Nc2ccc(-n3nn[nH]c3=O)cc2N2Cc3ccccc3C2)c(Cl)c1Cl` [Example 25, 3,4-Dichloro-N-(2-(isoindolin-2-yl)-4-(5-oxo-4,5-dihydro-1H-tetrazol-1-yl)phenyl)-5-methyl-1H-pyrrole-2-carboxamide], the viability at 1.25 µM was 112%, the viability at 2.5 µM amounted to 109% and the viability at 5 µM turned out to be 130%.

`Cc1[nH]c(C(=O)Nc2ccc(-c3n[nH]c(=O)o3)cc2N2CCOC(C)C2)c(Cl)c1Cl` (centres unmarked) [Example 43, 3,4-Dichloro-5-methyl-N-(2-(2-methylmorpholino)-4-(5-oxo-4,5-dihydro-1,3,4-oxadiazol-2-yl)phenyl)-1H-pyrrole-2-carboxamide]: the viability at 1.25 µM stood at 138%, the viability at 2.5 µM worked out at 12% and the viability at 5 µM was found to be 45.3%.

For `Cc1[nH]c(C(=O)Nc2ccc(C(=O)O)cc2NC2CCNCC2)c(Cl)c1Cl.Cl` [Example 15, 4-((5-Carboxy-2-(3,4-dichloro-5-methyl-1H-pyrrole-2-carboxamido)phenyl)amino)piperidin-1-ium chloride], the viability at 1.25 µM amounted to 121%, the viability at 2.5 µM stood at 128% and the viability at 5 µM amounted to 145%.

Consider `Cc1[nH]c(C(=O)Nc2ccc(-c3n[nH]c(=O)o3)cc2N2CCNCC2)c(Cl)c1Cl.Cl` [Example 41, 4-(2-(3,4-Dichloro-5-methyl-1H-pyrrole-2-carboxamido)-5-(5-oxo-4,5-dihydro-1,3,4-oxadiazol-2-yl)phenyl)piperazin-1-ium chloride], for which the viability at 1.25 µM was found to be 39.4%, the viability at 2.5 µM was 5.6% and the viability at 5 µM is 4.6%.

On to `Cc1[nH]c(C(=O)Nc2ccc(-c3noc(=O)[nH]3)cc2N2CCCC2)c(Cl)c1Cl` [Example 6, 3,4-Dichloro-5-methyl-N-(4-(5-oxo-4,5-dihydro-1,2,4-oxadiazol-3-yl)-2-(pyrrolidin-1-yl)phenyl)-1H-pyrrole-2-carboxamide], for which the viability at 1.25 µM was 100%, the viability at 2.5 µM is 112% and the viability at 5 µM was 99%.

On to `Cc1[nH]c(C(=O)Nc2ccc(-c3n[nH]c(=O)o3)cc2OCc2cccs2)c(Cl)c1Cl` [Example 33, 3,4-Dichloro-5-methyl-N-(4-(5-oxo-4,5-dihydro-1,3,4-oxadiazol-2-yl)-2-(thiophen-2-ylmethoxy)phenyl)-1H-pyrrole-2-carboxamide], for which the viability at 1.25 µM was 85.8%, the viability at 2.5 µM is 116%, the viability at 5 µM is 118% and the viability at 10 µM was 116%. Besides, the viability at 20 µM is 115%.

For `Cc1[nH]c(C(=O)Nc2ccc(C(=O)NCC(=O)O)cc2N2CCNCC2)c(Cl)c1Cl.Cl` [Example 36, 4-(5-((Carboxymethyl)carbamoyl)-2-(3,4-dichloro-5-methyl-1H-pyrrole-2-carboxamido)phenyl)piperazin-1-ium chloride], the viability at 1.25 µM was determined as 119%, the viability at 2.5 µM came out at 107% and the viability at 5 µM was found to be 125%.

For `Cl.N[C@H]1CCN(c2cc(C(=O)NCC(=O)O)ccc2NC(=O)c2cc(Br)c(Br)[nH]2)C1` [Example 38, (S)-1-(5-((Carboxymethyl)carbamoyl)-2-(4,5-dibromo-1H-pyrrole-2-carboxamido)phenyl)pyrrolidin-3-aminium chloride], the viability at 1.25 µM amounted to 126%, the viability at 2.5 µM was 124% and the viability at 5 µM was determined as 134%.

With `Cc1[nH]c(C(=O)Nc2ccc(C(=O)O)cc2N2CCN(c3ccccc3)CC2)c(Cl)c1Cl` [Example 16, 4-(3,4-Dichloro-5-methyl-1H-pyrrole-2-carboxamido)-3-(4-phenylpiperazin-1-yl)benzoic acid], the viability at 1.25 µM is 127%, the viability at 2.5 µM was found to be 134% and the viability at 5 µM is 144%.

For the compound `Cc1[nH]c(C(=O)Nc2ccc(-c3n[nH]c(=O)o3)cc2OCc2ncccn2)c(Cl)c1Cl` [Example 31, 3,4-Dichloro-5-methyl-N-(4-(5-oxo-4,5-dihydro-1,3,4-oxadiazol-2-yl)-2-(pyrimidin-2-ylmethoxy)phenyl)-1H-pyrrole-2-carboxamide], the viability at 1.25 µM was determined as 103%, the viability at 2.5 µM stood at 81.4%, the viability at 5 µM was 71.7% and the viability at 10 µM came to 87.4%. Moreover, the viability at 20 µM turned out to be 115%.

Take `Cc1[nH]c(C(=O)Nc2ccc(-c3n[nH]c(=O)o3)cc2OC(C)C)c(Cl)c1Cl` [Example 32, 3,4-Dichloro-N-(2-isopropoxy-4-(5-oxo-4,5-dihydro-1,3,4-oxadiazol-2-yl)phenyl)-5-methyl-1H-pyrrole-2-carboxamide]: the viability at 1.25 µM was 95.5%, the viability at 2.5 µM is 85.2%, the viability at 5 µM is 72.2% and the viability at 10 µM came out at 81.7%. The viability at 20 µM turned out to be 92.5%.

Consider `Cc1[nH]c(C(=O)Nc2ccc(-c3nn[nH]n3)cc2N2CCOCC2)c(Cl)c1Cl` [Example 10, 3,4-Dichloro-5-methyl-N-(2-morpholino-4-(2H-tetrazol-5-yl)phenyl)-1H-pyrrole-2-carboxamide], for which the viability at 1.25 µM is 109%, the viability at 2.5 µM was found to be 94.2% and the viability at 5 µM was 140%.

As to `Cc1[nH]c(C(=O)Nc2ccc(-c3n[nH]c(=O)o3)cc2OCCC2CCNCC2)c(Cl)c1Cl.Cl` [Example 29, 4-(2-(2-(3,4-Dichloro-5-methyl-1H-pyrrole-2-carboxamido)-5-(5-oxo-4,5-dihydro-1,3,4-oxadiazol-2-yl)phenoxy)ethyl)piperidin-1-ium chloride], the viability at 1.25 µM turned out to be 107%, the viability at 2.5 µM was found to be 92.8%, the viability at 5 µM worked out at 88% and the viability at 10 µM came to 71.5%. Besides, the viability at 20 µM amounted to 75.5%.

As for `Cc1[nH]c(C(=O)Nc2ccc(-c3n[nH]c(=O)o3)cc2OCc2ccccc2)c(Cl)c1Cl` [Example 11, N-(2-(Benzyloxy)-4-(5-oxo-4,5-dihydro-1,3,4-oxadiazol-2-yl)phenyl)-3,4-dichloro-5-methyl-1H-pyrrole-2-carboxamide], the viability at 1.25 µM came to 118%, the viability at 2.5 µM amounted to 112% and the viability at 5 µM was 119%.

Take `Cc1[nH]c(C(=O)Nc2ccc(-c3noc(=O)[nH]3)cc2NC2CCNCC2)c(Cl)c1Cl.Cl` [Example 4, 4-((2-(3,4-Dichloro-5-methyl-1H-pyrrole-2-carboxamido)-5-(5-oxo-4,5-dihydro-1,2,4-oxadiazol-3-yl)phenyl)amino)piperidin-1-ium chloride]: the viability at 1.25 µM was found to be 80%, the viability at 2.5 µM worked out at 13.6% and the viability at 5 µM worked out at 2.4%.

Regarding `Cc1[nH]c(C(=O)Nc2ccc(-c3n[nH]c(=O)o3)cc2OCC2CCCNC2)c(Cl)c1Cl.Cl` (centres unmarked) [Example 28, 3-((2-(3,4-Dichloro-5-methyl-1H-pyrrole-2-carboxamido)-5-(5-oxo-4,5-dihydro-1,3,4-oxadiazol-2-yl)phenoxy)methyl)piperidin-1-ium chloride], the viability at 1.25 µM is 90.4%, the viability at 2.5 µM came to 87.7%, the viability at 5 µM was 65.9% and the viability at 10 µM worked out at 38.8%. The viability at 20 µM came out at 30.1%.

In the case of `Cc1[nH]c(C(=O)Nc2ccc(-c3n[nH]c(=O)o3)cc2N2CC(C)OC(C)C2)c(Cl)c1Cl` (centres unmarked) [Example 44, 3,4-dichloro-N-(2-(2,6-dimethylmorpholino)-4-(5-oxo-4,5-dihydro-1,3,4-oxadiazol-2-yl)phenyl)-5-methyl-1H-pyrrole-2-carboxamide], the viability at 1.25 µM is 164%, the viability at 2.5 µM turned out to be 149% and the viability at 5 µM stood at 37.9%.

Regarding `Cc1[nH]c(C(=O)Nc2ccc(-c3n[nH]c(=O)o3)cc2OC2CCNC2)c(Cl)c1Cl.Cl` (centres unmarked) [Example 26, 3-(2-(3,4-Dichloro-5-methyl-1H-pyrrole-2-carboxamido)-5-(5-oxo-4,5-dihydro-1,3,4-oxadiazol-2-yl)phenoxy)pyrrolidin-1-ium chloride], the viability at 1.25 µM was 114%, the viability at 2.5 µM worked out at 111%, the viability at 5 µM is 102% and the viability at 10 µM came out at 99.2%. Moreover, the viability at 20 µM stood at 110%.

Take `Cc1[nH]c(C(=O)Nc2ccc(-c3noc(=O)[nH]3)cc2N2CCN(c3ccccc3)CC2)c(Cl)c1Cl` [Example 7, 3,4-Dichloro-5-methyl-N-(4-(5-oxo-4,5-dihydro-1,2,4-oxadiazol-3-yl)-2-(4-phenylpiperazin-1-yl)phenyl)-1H-pyrrole-2-carboxamide]: the viability at 1.25 µM was 100%, the viability at 2.5 µM was 82.3% and the viability at 5 µM came out at 109%.
